Several values for one entry are separate records, joined by “and”; a condition that tells them apart may be missing. Equal entries are not always repeated. Inconclusive results, whose numbers are uncertain, are shown with a selection of clear calls. Potencies of inconclusive entries are doubtful fits and often do not repeat. Activity calls are given as the source filed them. Unless noted, calls come from the whole dose curve; as a rule, active = well fitted curve in the direction sought with a large enough effect in the repeat runs; inconclusive = weak or mixed curves; inactive = no such curve, though single readings can be large; an effect the other way counts as inactive or inconclusive. Bridge positions count the residues as written; N and C are the ends. Square brackets hold non-standard residues; d marks the D form. Peptide text beside a SMILES is read from it. hArg = N=C(N)NCCCC[C@H](N)C(=O)O; Mpa = O=C(O)CCS
What was measured:
[1] = qHTS assay to identify small molecule agonists of the estrogen receptor beta (ER-beta) signaling pathway - cell viability counter screen (AID 1259380); note: nearly all actives have a fitted effect of over 30% in size
How it was run: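 Luminescence read-out (CellTiter-Glo, 30 min, room temp) taken in the same wells as the beta-lactamase reporter assay; ER-beta-UAS-bla HEK293T cells exposed to DMSO-dissolved compounds for 16 hr at 37C in 2% charcoal-stripped FBS medium.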

[2] = qHTS assay to identify small molecule antagonists of the estrogen receptor beta (ER-beta) signaling pathway - cell viability counter screen (AID 1259382); note: nearly all actives have a fitted effect of over 55% in size
How it was run: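 Luminescent ATP read-out (CellTiter-Glo, 30 min, RT) taken in the same wells as the bla reporter assay. HEK293T ER-beta-UAS-bla cells in 2% charcoal-stripped FBS were exposed to compounds with 1nM E2 for 16 hr at 37C.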

[3] = qHTS assay to identify small molecule agonists or antagonists of the thyroid stimulating hormone receptor (TSHR) signaling pathway - wild type cell line counter screen (AID 1259384; calls by dose curve; for cAMP activity change: % is set by controls: 0 for no effect and ±100 for the full control effect); details: HEK293 wild type, cAMP HTRF counter-screen; cAMP activity change: at 92.4 µM (top of the series), hits give high values unless noted
How it was run: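 Counter screen in untransfected Hek293: compounds (15-point titration, triplicate) plus phosphodiesterase inhibitor Ro20-1724 added after 18 h plating; 30 min RT. Intracellular cAMP via competitive d2/cryptate immunoassay, 1 h incubation.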

[4] = target: Thyrotropin receptor (Homo sapiens) (UniProt P16473); test: qHTS assay to identify small molecule antagonists of the thyroid stimulating hormone receptor (TSHR) signaling pathway (AID 1259385; calls by dose curve; note: nearly all actives have a fitted effect of over 20% in size; for activity change, negative = inhibition: % is set by controls: 0 for no effect and ±100 for the full control effect); details: TSHR-HEK293 cAMP HTRF, TSH-stimulated antagonist mode; activity change, negative = inhibition: at 92.4 µM (top of the series) unless noted
How it was run: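 Antagonist mode: compound-treated TSHR-expressing HEK293 cells were stimulated with 1.5 ng/mL TSH (final) in presence of Ro20-1724 for 30 min at RT. HTRF cAMP detection after 1 h; each compound tested at 15 concentrations, triplicate.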

[5] = qHTS assay to identify small molecule agonists of the estrogen receptor alpha (ER-alpha) signaling pathway in the presence of an antagonist - cell viability counter screen (AID 1259386);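 note: cells exposed to compounds for 22 h at 37 °C before the viability read; nearly all actives have a fitted effect of over 30% in size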
How it was run: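 Read-out: CellTiter-Fluor fluorescence after 1hr reagent incubation, measured in the same wells as the luciferase readout. VM7Luc4E2 cells were exposed to 15 compound concentrations with 10.0nM ICI-182,780 for 22hr at 37C.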

[6] = target: Progesterone receptor (Homo sapiens) (UniProt P06401); test: qHTS assay to identify small molecule agonists of the progesterone receptor (PR) signaling pathway (AID 1346784; calls by dose curve; note: nearly all actives have a fitted effect of over 30% in size; for activation: % is set by controls: 0 for no effect and ±100 for the full control effect); details: PR-UAS-bla HEK293T, beta-lactamase FRET ratio, 16 h; activation: at 92.4 µM (top of the series) unless noted
How it was run: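 Using charcoal-stripped serum (2%) to limit endogenous steroids, PR-UAS-bla HEK 293T cells received compounds for 16 hr at 37C after 6 hr plating; beta-lactamase FRET fluorescence was recorded following 2 hr substrate loading at room temperature.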

[7] = target: Estrogen receptor (Homo sapiens) (UniProt P03372); test: qHTS assay to identify small molecule agonists of the estrogen receptor alpha (ER-alpha) signaling pathway in the presence of an antagonist (AID 1259383; calls by dose curve; note: nearly all actives have a fitted effect of over 15% in size; for activation: top concentration of the series differs between compounds; % is set by controls: 0 for no effect and ±100 for the full control effect)
How it was run: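 Luciferase luminescence (ONE-Glo, 30min at room temperature) measured in VM7Luc4E2 cells after 22hr compound exposure at 15 concentrations, with 10.0nM ICI-182,780 final present; cells express endogenous ER-alpha and carry four EREs upstream of luciferase.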

[8] = target: Androgen receptor (Homo sapiens) (UniProt P10275); test: qHTS assay to identify small molecule agonists of the androgen receptor (AR) signaling pathway in the presence of an antagonist (AID 1259381; calls by dose curve; note: nearly all actives have a fitted effect of over 15% in size); details: MDA-kb2 MMTV-luciferase, AR agonist + nilutamide, 16 h
How it was run: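 Luciferase read-out (ONE-Glo, 30min room temperature) in MDA-kb2 MMTV-reporter cells; agonist mode run in presence of AR antagonist nilutamide, 3.0uM final. Compounds tested as 15-point series, 16hr exposure at 37C, 0% CO2.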
Potency is the fitted concentration of half-maximal effect; tags give direction and shape of the fitted curve or compound fluorescence and quenching.

Sequence of UniProt P03372 (P03372 whole entry, looked up): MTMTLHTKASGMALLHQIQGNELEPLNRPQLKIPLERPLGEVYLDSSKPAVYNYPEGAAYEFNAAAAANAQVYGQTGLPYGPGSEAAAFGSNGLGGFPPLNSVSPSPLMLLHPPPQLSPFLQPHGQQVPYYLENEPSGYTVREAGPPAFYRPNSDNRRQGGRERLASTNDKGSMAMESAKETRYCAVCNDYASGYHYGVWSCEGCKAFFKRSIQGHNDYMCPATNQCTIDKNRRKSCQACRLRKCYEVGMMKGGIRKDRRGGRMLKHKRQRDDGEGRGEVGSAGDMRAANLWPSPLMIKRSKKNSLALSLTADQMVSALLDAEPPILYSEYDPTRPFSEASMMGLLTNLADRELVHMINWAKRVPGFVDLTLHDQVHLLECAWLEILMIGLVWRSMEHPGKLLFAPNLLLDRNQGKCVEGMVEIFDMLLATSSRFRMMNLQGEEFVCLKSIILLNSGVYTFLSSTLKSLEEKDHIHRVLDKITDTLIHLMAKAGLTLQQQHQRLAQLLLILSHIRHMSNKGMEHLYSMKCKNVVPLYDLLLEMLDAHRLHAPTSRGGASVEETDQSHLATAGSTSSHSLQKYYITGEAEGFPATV
Sequence of UniProt P16473 (P16473 whole entry, looked up): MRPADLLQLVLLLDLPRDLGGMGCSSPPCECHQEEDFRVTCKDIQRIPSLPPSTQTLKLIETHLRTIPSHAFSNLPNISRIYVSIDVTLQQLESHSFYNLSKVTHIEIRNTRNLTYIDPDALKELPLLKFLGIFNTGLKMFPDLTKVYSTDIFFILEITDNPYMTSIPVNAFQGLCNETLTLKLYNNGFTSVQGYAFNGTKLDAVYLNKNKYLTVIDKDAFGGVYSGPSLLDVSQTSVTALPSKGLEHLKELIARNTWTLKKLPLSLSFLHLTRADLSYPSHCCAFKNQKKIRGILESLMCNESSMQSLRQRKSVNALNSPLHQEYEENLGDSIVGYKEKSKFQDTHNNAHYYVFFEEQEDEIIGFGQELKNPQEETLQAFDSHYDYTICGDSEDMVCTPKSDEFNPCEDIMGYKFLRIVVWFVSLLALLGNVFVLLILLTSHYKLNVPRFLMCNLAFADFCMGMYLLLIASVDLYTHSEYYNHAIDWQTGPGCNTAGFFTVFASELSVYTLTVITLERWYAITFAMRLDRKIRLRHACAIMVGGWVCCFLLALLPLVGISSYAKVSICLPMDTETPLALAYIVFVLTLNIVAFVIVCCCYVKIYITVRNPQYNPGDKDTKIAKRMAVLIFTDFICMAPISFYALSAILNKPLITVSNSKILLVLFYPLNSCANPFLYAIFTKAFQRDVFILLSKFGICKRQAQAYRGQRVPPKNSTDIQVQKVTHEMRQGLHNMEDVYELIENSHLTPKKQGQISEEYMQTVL
Sequence of UniProt P06401 (P06401 whole entry, looked up): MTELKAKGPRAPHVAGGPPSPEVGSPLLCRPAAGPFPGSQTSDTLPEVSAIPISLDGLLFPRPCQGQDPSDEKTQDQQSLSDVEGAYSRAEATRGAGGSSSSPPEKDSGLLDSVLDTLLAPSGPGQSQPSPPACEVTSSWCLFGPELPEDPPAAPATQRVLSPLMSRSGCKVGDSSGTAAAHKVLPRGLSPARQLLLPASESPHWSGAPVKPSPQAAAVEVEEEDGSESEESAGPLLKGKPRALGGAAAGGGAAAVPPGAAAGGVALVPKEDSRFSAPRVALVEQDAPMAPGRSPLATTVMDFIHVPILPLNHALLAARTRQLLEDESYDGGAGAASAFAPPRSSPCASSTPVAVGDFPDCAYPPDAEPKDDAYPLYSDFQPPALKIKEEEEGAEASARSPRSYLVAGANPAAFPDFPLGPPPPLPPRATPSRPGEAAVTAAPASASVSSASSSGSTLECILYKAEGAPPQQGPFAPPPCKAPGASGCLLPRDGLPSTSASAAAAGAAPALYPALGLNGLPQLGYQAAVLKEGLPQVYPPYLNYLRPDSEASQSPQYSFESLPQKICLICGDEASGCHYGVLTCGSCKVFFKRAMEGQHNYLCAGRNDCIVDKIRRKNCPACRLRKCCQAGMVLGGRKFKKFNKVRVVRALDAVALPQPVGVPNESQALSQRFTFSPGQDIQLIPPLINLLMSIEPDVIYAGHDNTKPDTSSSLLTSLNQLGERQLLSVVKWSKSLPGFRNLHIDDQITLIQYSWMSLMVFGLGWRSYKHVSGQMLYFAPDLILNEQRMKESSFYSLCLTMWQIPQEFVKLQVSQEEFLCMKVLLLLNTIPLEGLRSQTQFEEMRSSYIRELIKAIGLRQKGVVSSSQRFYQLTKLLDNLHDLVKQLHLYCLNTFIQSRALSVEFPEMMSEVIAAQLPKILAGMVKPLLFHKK
Sequence of UniProt P10275 (P10275 whole entry, looked up): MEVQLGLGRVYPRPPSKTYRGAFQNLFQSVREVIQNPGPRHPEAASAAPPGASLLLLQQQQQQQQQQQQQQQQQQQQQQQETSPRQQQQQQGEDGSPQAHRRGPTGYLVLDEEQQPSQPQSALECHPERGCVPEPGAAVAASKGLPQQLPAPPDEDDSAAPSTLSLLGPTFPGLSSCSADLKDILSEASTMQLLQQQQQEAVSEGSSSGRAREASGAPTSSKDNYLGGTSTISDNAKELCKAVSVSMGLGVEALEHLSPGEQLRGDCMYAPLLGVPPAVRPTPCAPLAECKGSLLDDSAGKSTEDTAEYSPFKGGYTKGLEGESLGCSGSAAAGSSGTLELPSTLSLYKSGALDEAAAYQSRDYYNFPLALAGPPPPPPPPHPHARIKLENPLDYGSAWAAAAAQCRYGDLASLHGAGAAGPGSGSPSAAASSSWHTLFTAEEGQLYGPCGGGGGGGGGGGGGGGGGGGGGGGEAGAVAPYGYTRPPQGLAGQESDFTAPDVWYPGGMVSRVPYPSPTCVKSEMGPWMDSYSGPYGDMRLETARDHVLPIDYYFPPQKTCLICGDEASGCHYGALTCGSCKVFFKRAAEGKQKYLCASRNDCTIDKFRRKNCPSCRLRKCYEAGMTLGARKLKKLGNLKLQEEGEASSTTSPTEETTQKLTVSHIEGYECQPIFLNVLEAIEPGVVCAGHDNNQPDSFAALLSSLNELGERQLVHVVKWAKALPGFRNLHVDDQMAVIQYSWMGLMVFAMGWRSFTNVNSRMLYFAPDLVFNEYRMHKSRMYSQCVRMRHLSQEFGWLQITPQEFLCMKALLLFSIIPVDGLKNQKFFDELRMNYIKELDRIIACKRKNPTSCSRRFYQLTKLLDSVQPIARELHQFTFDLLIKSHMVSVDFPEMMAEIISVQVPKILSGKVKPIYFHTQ

Nc1ccc(N=Nc2ccc(N)cc2)cc1
Potency [1]: inconclusive: 27.3 µM [cytotoxic, partial curve]
Potency [2]: inconclusive: 27.3 µM [cytotoxic, partial curve, poor fit]

CCCCCc1ccc(O)cc1
Potency [1]: inconclusive: 68.6 µM [cytotoxic, single point]
Potency [2]: inconclusive: 68.6 µM [cytotoxic, partial curve, poor fit]

CCOc1ccc2nc3cc(N)ccc3c(N)c2c1
Potency [1]: inconclusive: 33.5 µM [cytotoxic]
Potency [2]: inconclusive: 23.7 µM [cytotoxic, partial curve]
Potency [3]: inconclusive: 26.6 µM
Potency [4]: inconclusive: 29.8 µM [falling, single point]
Potency [5]: inconclusive: 16.8 µM [rising, partial curve]
activation [6]: inconclusive: 21.8% [at 42.5 µM]

C[Si](NC1CCCCC1)(NC1CCCCC1)NC1CCCCC1
Potency [1]: active: 27.3 µM
Potency [2]: inconclusive: 15.4 µM [cytotoxic, full curve, poor fit]

CC(C)(C)CC(C)(C)c1ccc(Nc2ccc(C(C)(C)CC(C)(C)C)cc2)cc1
Potency [1]: inconclusive: 2.39 µM [cytotoxic, partial curve, poor fit]

CCC(CC)(CC(=O)Nc1cccc(/C=C/c2nc(C3CCC3)cs2)c1)C(=O)O
Potency [1]: active: 7.5 µM
Potency [2]: inconclusive: 5.31 µM [cytotoxic, full curve, poor fit]
Potency [7]: inconclusive: 23.7 µM [activator, partial curve, poor fit]

CCC(C)(CCC(C)C)C(=O)[O-].CCC(C)(CCC(C)C)C(=O)[O-].[Zn+2] (stereo not drawn)
Potency [1]: inactive

Cc1ncc(COP(=O)(O)O)c(C=O)c1O
Potency [1]: inconclusive: 33.5 µM [cytotoxic, single point]

Oc1ccc(Cc2ccccc2O)cc1
Potency [1]: inconclusive: 27.6 µM [cytotoxic, full curve, poor fit] and inconclusive: 61.1 µM [cytotoxic, partial curve, poor fit]

Nc1ccn([C@@H]2O[C@H](CO)[C@@H](O)C2O)c(=O)n1 (stereo partly drawn)
Potency [1]: inactive

CN(CCCN1c2ccccc2CCc2ccccc21)CC(=O)c1ccc(Cl)cc1
Potency [1]: inconclusive: 13.3 µM [cytotoxic, partial curve]
Potency [2]: inconclusive: 33.5 µM [cytotoxic, partial curve, poor fit]

CC(C)OC(=O)c1cc2c(OCC(O)CNC(C)(C)C)cccc2[nH]1 (stereo not drawn)
Potency [1]: inconclusive: 26.6 µM [cytotoxic]
Potency [2]: inconclusive: 29.8 µM [cytotoxic, partial curve, poor fit]

[Cl][Nd]([Cl])[Cl]
Potency [1]: inactive

NC(=O)[C@@H]1CSSCCC(=O)N[C@@H](CCCCN=C(N)N)C(=O)NCC(=O)N[C@@H](CC(=O)O)C(=O)N[C@@H](Cc2c[nH]c3ccccc23)C(=O)N2CCC[C@H]2C(=O)N1 ([Mpa][hArg]GDWPC-NH2; disulfide 1-7)
Potency [1]: inactive

O=c1c(-c2ccc(O)cc2)coc2cc(O)ccc12
Potency [1]: inconclusive: 38.2 µM [cytotoxic, partial curve] and inconclusive: 30.6 µM [cytotoxic, partial curve]
Potency [8]: inconclusive: 43.3 µM [rising, partial curve]
Potency [4]: inconclusive: 24.3 µM [falling, partial curve, poor fit]

O=C1NC(=O)[C@@H]2CC=CC[C@H]12
Potency [1]: active: 27.3 µM
Potency [2]: inconclusive: 9.69 µM [cytotoxic, full curve]
Potency [4]: inactive

COC(=O)c1ccccc1OC
Potency [1]: inactive

O=C(O)C(=O)Cc1c[nH]c2ccccc12
Potency [1]: inactive

CCCCCCCCCCCCCO
Potency [1]: inconclusive: 71 µM [cytotoxic, partial curve, poor fit]

CCCCCC[C@@H](CCC)C(=O)O
Potency [1]: inconclusive: 16.8 µM [cytotoxic, partial curve]

NS(=O)(=O)c1cc(C(=O)O)c(NCc2ccco2)cc1Cl
Potency [1]: inconclusive: 33.5 µM [cytotoxic, single point]

CC/C=C\CCO
Potency [1]: inactive

O=C(O)CCC(=O)OC[C@@H](NC(=O)C(Cl)Cl)[C@H](O)c1ccc([N+](=O)[O-])cc1
Potency [1]: inactive

CCCCCCC(O)CCCCCCCCCCC(=O)OC (stereo not drawn)
Potency [1]: inconclusive: 38.6 µM [cytotoxic, partial curve]
Potency [2]: inconclusive: 68.6 µM [cytotoxic, partial curve, poor fit]

C/C=C\C/C=C/CCCCCCCCOC(C)=O
Potency [1]: active: 61.1 µM
Potency [2]: inconclusive: 61.1 µM [cytotoxic, partial curve]

Cc1cccc(C)c1NC(=O)c1ccc(N)cc1
Potency [1]: inconclusive: 23.7 µM [cytotoxic, single point]
Potency [4]: inactive
Potency [6]: inactive

COc1cc(N)c(Cl)cc1C(=O)NC1CCN(Cc2ccccc2)CC1
Potency [1]: inconclusive: 26.6 µM [cytotoxic, partial curve]
activity change, negative = inhibition [4]: inconclusive: -12.4% [at 42.5 µM]
Potency [5]: inconclusive: 18.8 µM [cytotoxic, partial curve]

C[C@@H](O)[C@H]1C(=O)N2C(C(=O)O)=C([C@H]3CCCO3)S[C@H]12
Potency [1]: inactive
activation [6]: inconclusive: -15% [at 42.5 µM]

N[C@@H](Cc1cc(I)c(O)c(I)c1)C(=O)O
Potency [1]: inactive
Potency [5]: inactive

CCCCCCCCCCN
Potency [1]: inconclusive: 69 µM [cytotoxic, single point]
Potency [6]: inactive

O=C(O)c1ccccc1C(=O)O
Potency [1]: inactive
Potency [4]: inactive

CCN(CCC#N)c1ccc(N=Nc2c(Cl)cc([N+](=O)[O-])cc2Cl)cc1
Potency [1]: inconclusive: 10.9 µM [cytotoxic, full curve]
Potency [2]: inconclusive: 24.3 µM [cytotoxic, partial curve]
Potency [5]: active: 8.63 µM
Potency [6]: inconclusive: 68.6 µM [falling, partial curve, poor fit]

O=c1[nH]cnc2c1ncn2[C@H]1CC[C@@H](CO)O1
Potency [1]: inactive
Potency [7]: inactive

O=C(O)c1cccc(C(=O)O)c1C(=O)O
Potency [1]: active: 13.8 µM
Potency [2]: inconclusive: 12.3 µM [cytotoxic, partial curve]
Potency [6]: inconclusive: 30.9 µM [rising, partial curve, poor fit]

CC(=O)c1ccc2c(c1)[C@H](NC(=O)c1ccc(F)cc1)[C@@H](O)C(C)(C)O2
Potency [1]: inconclusive: 16.2 µM [cytotoxic, full curve]
Potency [6]: inactive

CC(=O)/C=C/c1ccco1
Potency [1]: inactive
Potency [4]: inconclusive: 63.4 µM [falling, single point]

O=C(O)/C=C/c1ccc(/C=C/C(=O)O)cc1
Potency [8]: inconclusive: 11.9 µM [rising, partial curve]

Nc1nc2ncc(CNc3ccc(C(=O)N[C@@H](CCC(=O)O)C(=O)O)cc3)nc2c(=O)[nH]1
Potency [1]: inconclusive: 27.3 µM [rising, single point]
Potency [3]: inactive

CCOC(=O)C(C)Oc1ccc(Oc2cnc3cc(Cl)ccc3n2)cc1 (stereo not drawn)
Potency [1]: inconclusive: 16.1 µM [rising, partial curve, poor fit]
Potency [4]: inconclusive: 62.6 µM [falling, partial curve]

CC(=O)c1ccc(C(C)=O)cc1
Potency [1]: inactive
Potency [4]: inactive
Potency [5]: inconclusive: 15.7 µM [cytotoxic, single point]

CC1=C2[C@@H]([C@H](C)CC[C@H]2/C=C(\C)C(=O)O)[C@H](O)C1
Potency [1]: inactive
Potency [3]: inactive

CCCc1nc2c(C)cc(-c3nc4ccccc4n3C)cc2n1Cc1ccc(-c2ccccc2C(=O)O)cc1
Potency [1]: inconclusive: 7.5 µM [cytotoxic, full curve]
Potency [6]: inactive

CCOC(=O)C(C)(C)Oc1ccc(Cl)cc1
Potency [1]: inconclusive: 29.8 µM [rising, partial curve, poor fit]
Potency [4]: inconclusive: 0.553 µM [falling, full curve, poor fit]

ClC/C=C/CCl
Potency [1]: inactive
Potency [6]: inactive

C[C@]1(Cn2ccnn2)[C@H](C(=O)O)N2C(=O)C[C@H]2S1(=O)=O
Potency [1]: inconclusive: 33.5 µM [rising, partial curve, poor fit]
activation [6]: inconclusive: -20.9% [at 42.5 µM]

COC(OC)OC
Potency [1]: inactive
Potency [6]: inactive

CC(C(=O)O)c1ccc2c(c1)[nH]c1ccc(Cl)cc12 (stereo not drawn)
Potency [1]: active: 29.8 µM
Potency [6]: inconclusive: 13.3 µM [rising, single point]

CC(=O)OCC1=C(C(=O)O)N2C(=O)[C@@H](NC(=O)CSc3ccncc3)[C@H]2SC1
Potency [1]: inactive
Potency [4]: inactive

COc1cc(Nc2c(C#N)cnc3cc(OCCCN4CCN(C)CC4)c(OC)cc23)c(Cl)cc1Cl
Potency [1]: active: 33.5 µM
Potency [4]: active: 13.3 µM
Potency [5]: inconclusive: 1.88 µM [cytotoxic, full curve]

Nc1cc(Cl)c(N)c(Cl)c1
Potency [1]: inactive
Potency [3]: inconclusive: 38.6 µM
cAMP activity change [3]: inconclusive: -9.96%

O=[N+]([O-])C1(Br)COCOC1
Potency [1]: inconclusive: 48.6 µM [cytotoxic, partial curve]
Potency [4]: inconclusive: 68.6 µM

CN(C)CCCOC1(Cc2ccccc2)CCCCCC1
Potency [1]: inconclusive: 33.5 µM [cytotoxic, single point]
Potency [4]: inconclusive: 26.6 µM [falling, partial curve]

CCC(=O)OC(=O)CC
Potency [1]: inconclusive: 68 µM [cytotoxic, single point]
Potency [6]: inconclusive: 60.6 µM [rising, partial curve, poor fit]

O=C1C(O)=C(O)C(=O)C(O)=C1O
Potency [1]: inactive
Potency [6]: inactive

From PubChem BioAssay (Tox21)
